Measured values from the supplement of paper PMC10126150.
Values marked as one replicate rest on one cluster of the flow cell; about a third of the high ones do not repeat.
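Also: ATP exposure 15 min at 22 °C before imaging.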

These sequences were tested on ATP (assay: switch fluorescence ratio, 500 uM ATP over buffer (Cy3 cluster intensity, sum of 5 cycles each) (fold (ratio)); higher = stronger signal-on switching upon ATP binding; sequences stand for … in TCGTCGGCAGCGTCAGATGTGTATAAGAGACAGTTTTTTTTTTTTTTTTTTTTTTTTT…TC). Details: aptamer strand: ATP DNA aptamer (quencher-CACCTGGGGGAGTATTGCGGAGGAAGG + anchor), 100 nM annealed; ATP concentration: 500 uM; one replicate.
Procedure, shortened: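 Imaging in selection buffer was followed by imaging after 15 min with 500 uM ATP at 22 °C, for Cy3-labelled switching-strand clusters annealed to 100 nM quencher-labelled ATP aptamer on a modified Illumina MiSeq flow-cell. Five of these buffer/ATP cycles ran, separated by NaOH stripping and re-annealing. The fluorescence ratio per cluster is summed target-cycle over summed buffer-cycle Cy3 intensity, averaged per switch-domain sequence; clusters outside 100-1000 RFU were removed.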
AGCAATGATG showed a switch fluorescence ratio of 1.18. AGCACAGTGG gave a switch fluorescence ratio of 0.999. With AGCACATTGC the switch fluorescence ratio was 1.04. For AGCACCCAAT, the switch fluorescence ratio was 1.06. With AGCACCGGAG the switch fluorescence ratio was 1.1. Work on AGCACCTATA yielded a switch fluorescence ratio of 1.01. Sequence AGCACGCAAT has a switch fluorescence ratio of 5.73. Sequence AGCACTACCC has a switch fluorescence ratio of 1.6. With AGCACTGTGC the switch fluorescence ratio was 1. With AGCAGACAGC the switch fluorescence ratio was 1.02. For AGCAGATTGC, the switch fluorescence ratio was 1.04. In the case of AGCAGCTACT, the switch fluorescence ratio is reported as 1.33. In the case of AGCAGGCATA, the switch fluorescence ratio is reported as 1.02. For AGCAGGGTGC, the switch fluorescence ratio was 1.02. Work on AGCAGTAT yielded a switch fluorescence ratio of 1.14. For AGCAGTGAAG, the switch fluorescence ratio was 0.988. Work on AGCAGTTTCT yielded a switch fluorescence ratio of 1. In the case of AGCATGTTCT, the switch fluorescence ratio is reported as 0.994. Sequence AGCATTACAT has a switch fluorescence ratio of 1.12. AGCATTGCTT gave a switch fluorescence ratio of 0.981. With AGCATTTTAA the switch fluorescence ratio was 1.02. Work on AGCCACCCGG yielded a switch fluorescence ratio of 1.05. Sequence AGCCAGATAG has a switch fluorescence ratio of 0.973. Sequence AGCCAGGACT has a switch fluorescence ratio of 1.03. In the case of AGCCAGTAAT, the switch fluorescence ratio is reported as 1.05. In the case of AGCCATCTAG, the switch fluorescence ratio is reported as 0.987. With AGCCATTTGG the switch fluorescence ratio was 1.04. In the case of AGCCCAGAAG, the switch fluorescence ratio is reported as 1.03. With AGCCCCATCT the switch fluorescence ratio was 0.956. In the case of AGCCCGTATG, the switch fluorescence ratio is reported as 1.04. In the case of AGCCGAATTA, the switch fluorescence ratio is reported as 0.998. AGCCGACTAC showed a switch fluorescence ratio of 1.25. AGCCGCACTA was tested, and the switch fluorescence ratio was 2.56. Work on AGCCGGAAAG yielded a switch fluorescence ratio of 1.03. Sequence AGCCGGGACA has a switch fluorescence ratio of 1.02. In the case of AGCCGGGGTG, the switch fluorescence ratio is reported as 1.06. AGCCTAGGC gave a switch fluorescence ratio of 0.977. Work on AGCCTGGACC yielded a switch fluorescence ratio of 1.04. For AGCCTGGACG, the switch fluorescence ratio was 1.01. Work on AGCGAACTGA yielded a switch fluorescence ratio of 1.03. Sequence AGCGAATT has a switch fluorescence ratio of 1.03. Work on AGCGACGACA yielded a switch fluorescence ratio of 1.26. Work on AGCGAGAAGA yielded a switch fluorescence ratio of 1.01. For AGCGAGCATA, the switch fluorescence ratio was 1.02. Work on AGCGAGTATG yielded a switch fluorescence ratio of 1.01. Sequence AGCGAGTCTA has a switch fluorescence ratio of 1.02. Work on AGCGAGTGCT yielded a switch fluorescence ratio of 0.985. Sequence AGCGATAACC has a switch fluorescence ratio of 1.45. For AGCGATTGCG, the switch fluorescence ratio was 1.05. Sequence AGCGCAAAGA has a switch fluorescence ratio of 1.04. With AGCGCAACAA the switch fluorescence ratio was 1.38. Work on AGCGCAAGGA yielded a switch fluorescence ratio of 2.28. AGCGCAATTA was tested, and the switch fluorescence ratio was 3.43. AGCGCGCCTG was tested, and the switch fluorescence ratio was 1.01. In the case of AGCGCGCGAT, the switch fluorescence ratio is reported as 1.02. In the case of AGCGCGGCGA, the switch fluorescence ratio is reported as 1.08. AGCGCGTAAG showed a switch fluorescence ratio of 1.02. AGCGCTACCG was tested, and the switch fluorescence ratio was 1.01. For AGCGCTCTGT, the switch fluorescence ratio was 1.05. With AGCGCTGAGT the switch fluorescence ratio was 1.01. Work on AGCGGACGGG yielded a switch fluorescence ratio of 1.01. With AGCGGACTGG the switch fluorescence ratio was 1. AGCGGAGGCT showed a switch fluorescence ratio of 0.91. AGCGGCAAAT was tested, and the switch fluorescence ratio was 0.993. AGCGGCGGTC gave a switch fluorescence ratio of 1.04. Work on AGCGGGACGG yielded a switch fluorescence ratio of 0.983. AGCGGGCCGC showed a switch fluorescence ratio of 1. AGCGGTATAT showed a switch fluorescence ratio of 1.01. AGCGTAAGGG gave a switch fluorescence ratio of 1.04. In the case of AGCGTAGATG, the switch fluorescence ratio is reported as 0.984. AGCGTAGTCT gave a switch fluorescence ratio of 1.05. Work on AGCGTGGAGT yielded a switch fluorescence ratio of 1.02. Sequence AGCGTGTAAG has a switch fluorescence ratio of 1. AGCGTGTGGA showed a switch fluorescence ratio of 0.897. Sequence AGCGTTAACG has a switch fluorescence ratio of 1. In the case of AGCTAATCTT, the switch fluorescence ratio is reported as 0.98. AGCTAATGAG gave a switch fluorescence ratio of 1.02. Sequence AGCTAGAGGG has a switch fluorescence ratio of 1.03. AGCTAGCGCC was tested, and the switch fluorescence ratio was 1.02. AGCTAGGA gave a switch fluorescence ratio of 1.03. Work on AGCTAGTATT yielded a switch fluorescence ratio of 0.983. AGCTATTACG was tested, and the switch fluorescence ratio was 1.15. With AGCTCAGACA the switch fluorescence ratio was 0.992. For AGCTCGAAGT, the switch fluorescence ratio was 1. With AGCTCTATAT the switch fluorescence ratio was 1.05. With AGCTCTTTTA the switch fluorescence ratio was 1.01. Work on AGCTGAGGCA yielded a switch fluorescence ratio of 0.992. AGCTGATGTC gave a switch fluorescence ratio of 1.03. With AGCTGGGGCA the switch fluorescence ratio was 1. Work on AGCTGGGTCT yielded a switch fluorescence ratio of 0.991. Work on AGCTGGGTGA yielded a switch fluorescence ratio of 1.03. In the case of AGCTGGTCCC, the switch fluorescence ratio is reported as 1.11. AGCTGTGTTT showed a switch fluorescence ratio of 0.976. For AGCTTACTTC, the switch fluorescence ratio was 1.34. In the case of AGCTTATAG, the switch fluorescence ratio is reported as 1.06. AGCTTATTTA showed a switch fluorescence ratio of 0.994. Sequence AGCTTCTAGC has a switch fluorescence ratio of 1.01. In the case of AGCTTGATGG, the switch fluorescence ratio is reported as 0.991. AGCTTGCTGC gave a switch fluorescence ratio of 0.976. In the case of AGCTTGGACA, the switch fluorescence ratio is reported as 0.976. AGCTTGGC gave a switch fluorescence ratio of 1.01. Work on AGCTTGGCGG yielded a switch fluorescence ratio of 1. For AGCTTGGCTG, the switch fluorescence ratio was 0.972. With AGCTTGTGGG the switch fluorescence ratio was 0.974. AGCTTTAAGT was tested, and the switch fluorescence ratio was 0.984. Sequence AGCTTTAATC has a switch fluorescence ratio of 1.05. With AGCTTTAGCG the switch fluorescence ratio was 0.981. For AGGAAAAATG, the switch fluorescence ratio was 1.03. With AGGAAAGGAC the switch fluorescence ratio was 1.06. In the case of AGGAAATCCG, the switch fluorescence ratio is reported as 0.996. In the case of AGGAAGCCGT, the switch fluorescence ratio is reported as 0.959. With AGGAAGGATA the switch fluorescence ratio was 0.966. With AGGAAGGATC the switch fluorescence ratio was 1.01. AGGAATGGGT gave a switch fluorescence ratio of 0.996. Sequence AGGACACGGA has a switch fluorescence ratio of 1.04. In the case of AGGACGATAA, the switch fluorescence ratio is reported as 1.09. For AGGACGTAAA, the switch fluorescence ratio was 1.08. In the case of AGGACTCAGT, the switch fluorescence ratio is reported as 1.01. Work on AGGAGAACAG yielded a switch fluorescence ratio of 1. With AGGAGACATT the switch fluorescence ratio was 1.04. Work on AGGAGAGTA yielded a switch fluorescence ratio of 0.958. AGGAGCACAG gave a switch fluorescence ratio of 1.01. In the case of AGGAGCTTTG, the switch fluorescence ratio is reported as 1.02. AGGAGGAACT gave a switch fluorescence ratio of 1.02. In the case of AGGAGGCTTT, the switch fluorescence ratio is reported as 1.02. AGGAGTATAA was tested, and the switch fluorescence ratio was 0.951. Sequence AGGAGTCAGA has a switch fluorescence ratio of 0.982. In the case of AGGAGTCTA, the switch fluorescence ratio is reported as 1.01. AGGATAACCA was tested, and the switch fluorescence ratio was 1.02. For AGGATATCCG, the switch fluorescence ratio was 1.02. In the case of AGGATATCGC, the switch fluorescence ratio is reported as 1.03. Sequence AGGATATTTT has a switch fluorescence ratio of 0.934. AGGATCAGTT gave a switch fluorescence ratio of 0.974. With AGGATCTGCT the switch fluorescence ratio was 0.993. Work on AGGATGCATC yielded a switch fluorescence ratio of 0.959. For AGGATTACGG, the switch fluorescence ratio was 1.02. With AGGATTATA the switch fluorescence ratio was 1.01. In the case of AGGATTGTAA, the switch fluorescence ratio is reported as 0.952. AGGCAAATAT gave a switch fluorescence ratio of 1.03. With AGGCAAGCTA the switch fluorescence ratio was 1.09. For AGGCAATTGA, the switch fluorescence ratio was 0.963. AGGCAGCATT gave a switch fluorescence ratio of 1. AGGCAGTTAA showed a switch fluorescence ratio of 0.972. For AGGCATAATC, the switch fluorescence ratio was 1.11. Sequence AGGCATCATC has a switch fluorescence ratio of 1.05. AGGCATGGCG showed a switch fluorescence ratio of 0.962. For AGGCATTCTG, the switch fluorescence ratio was 1.04. With AGGCCCAGAA the switch fluorescence ratio was 0.984. AGGCCGACTA showed a switch fluorescence ratio of 0.962. AGGCCGCTAG was tested, and the switch fluorescence ratio was 1.02. In the case of AGGCCGGGCC, the switch fluorescence ratio is reported as 0.992. AGGCCTAATG gave a switch fluorescence ratio of 0.981. For AGGCGAATGG, the switch fluorescence ratio was 0.991. In the case of AGGCGACTCC, the switch fluorescence ratio is reported as 1.11. With AGGCGAGTAT the switch fluorescence ratio was 0.984. Sequence AGGCGGGTCT has a switch fluorescence ratio of 1.02. Work on AGGCGGGTGT yielded a switch fluorescence ratio of 1.04. For AGGCGTCCA, the switch fluorescence ratio was 1.02. Sequence AGGCGTGGT has a switch fluorescence ratio of 1.04. For AGGCGTTGTT, the switch fluorescence ratio was 1.05. Work on AGGCTAATGG yielded a switch fluorescence ratio of 1.04. AGGCTCGGAA gave a switch fluorescence ratio of 1.1. Work on AGGCTCTGGG yielded a switch fluorescence ratio of 1.03. In the case of AGGCTGACCA, the switch fluorescence ratio is reported as 1.03. AGGCTGATTC was tested, and the switch fluorescence ratio was 0.913. AGGCTGTTA was tested, and the switch fluorescence ratio was 0.974. AGGCTGTTAT was tested, and the switch fluorescence ratio was 1.03. AGGCTTCGCT was tested, and the switch fluorescence ratio was 1. AGGGAACGGA was tested, and the switch fluorescence ratio was 0.991. With AGGGAAGACG the switch fluorescence ratio was 0.902. With AGGGAAGCGC the switch fluorescence ratio was 0.967. AGGGAAGTAC showed a switch fluorescence ratio of 1.16. Sequence AGGGAAGTAG has a switch fluorescence ratio of 0.991. AGGGAATCTC showed a switch fluorescence ratio of 0.989. For AGGGACACTT, the switch fluorescence ratio was 0.98. Work on AGGGACCTAT yielded a switch fluorescence ratio of 1.05. AGGGACCTTC gave a switch fluorescence ratio of 1.19. For AGGGACCTTT, the switch fluorescence ratio was 0.988. AGGGACGCCG was tested, and the switch fluorescence ratio was 1.05. AGGGACGTCG showed a switch fluorescence ratio of 0.975. AGGGACTGAA was tested, and the switch fluorescence ratio was 1.03. AGGGATGGAT showed a switch fluorescence ratio of 0.917. AGGGCAGAAC showed a switch fluorescence ratio of 1. Sequence AGGGCATCGT has a switch fluorescence ratio of 1.04. Sequence AGGGCCAGTG has a switch fluorescence ratio of 1. AGGGCCTACC gave a switch fluorescence ratio of 0.973. Work on AGGGCGGACC yielded a switch fluorescence ratio of 1.02. For AGGGCGGAG, the switch fluorescence ratio was 0.973. AGGGCGGCCG gave a switch fluorescence ratio of 0.959. For AGGGCGTGGG, the switch fluorescence ratio was 1.02. In the case of AGGGCTAGGA, the switch fluorescence ratio is reported as 0.978. AGGGCTGTTT showed a switch fluorescence ratio of 0.99. AGGGGAGAG showed a switch fluorescence ratio of 0.993. In the case of AGGGGCATCT, the switch fluorescence ratio is reported as 0.995. Work on AGGGGCATTA yielded a switch fluorescence ratio of 1.02. AGGGGCCGTT gave a switch fluorescence ratio of 1. In the case of AGGGGCCTCT, the switch fluorescence ratio is reported as 1.02. AGGGGCGGG gave a switch fluorescence ratio of 0.915. Sequence AGGGGGGTC has a switch fluorescence ratio of 0.997. For AGGGGGTCCT, the switch fluorescence ratio was 0.966. AGGGGTCTC gave a switch fluorescence ratio of 0.96.
